# In all, about 3,600 compounds were measured (“viability index relative to DMSO control”: median about 0.81, lowest 2% from about 0.13 on). The list shows a part of the results.
# System: Plasmodium falciparum NF54 stage V gametocytes
# Experiment: viability index relative to DMSO control (fraction); higher = less gametocyte killing
# Conditions: 1.25 µM, incubation time: 72 h
# 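Note: 384-well serum-free SaLSSA: MitoTracker Red CMXRos staining with saponin lysis, high-content imaging, treated-well particle count divided by plate-mean count of DMSO wells.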
row,Structure (SMILES),viability index
1,COC(=O)c1c(NC(=O)c2c(-c3ccccc3)noc2C)sc2c1CCC2,0.792
2,CC(=O)N1CCc2cc(Br)cc(S(=O)(=O)N3CCCC(C)C3)c21 (stereo not drawn),0.835
3,CC(=O)NCCc1nc2ccccc2n1Cc1ccc(C(C)C)cc1,1.02
4,CCOc1ccccc1-n1c(SCC(=O)c2ccc(Cl)cc2)nc2[nH]ncc2c1=O,0.905
5,c1ccc(CNc2nc(-c3ccccn3)nnc2-c2ccccc2)cc1,0.374
6,CCN(c1ccccc1)S(=O)(=O)c1ccc(F)c(C(=O)Nc2c(C)cccc2C)c1,1.34
7,O=[N+]([O-])c1ccc(-n2cccc2C=NNc2ncnc3sc4c(c23)CCCC4)cc1,1.09
8,Ic1ccc(NCc2cn3ccccc3n2)cc1,0.918
9,C=CCn1c(SCC(=O)Nc2ccccc2C)nc2sc(C)cc2c1=O,1.02
10,O=[N+]([O-])c1cc(C(F)(F)F)ccc1N1CCCN(C(=S)Nc2cccc(C(F)(F)F)c2)CC1,0.336
11,CCOC(=O)c1ccc(OCC2c3cc(OC)c(OC)cc3CCN2C(=O)Nc2ccc(Cl)cc2)cc1 (stereo not drawn),1.07
12,CCCN1CCC(N2C[C@@H](NCc3ccc(OCc4ccccc4)cc3)C[C@H]2C(=O)NCCc2ccc3c(c2)OCO3)CC1,1.07
13,Cc1cc(Nc2ccc(Br)c(C)c2)n2nc(C)nc2n1,1.08
14,CC(=O)N(C1=C(N2CCN(C)CC2)C(=O)c2ccccc2C1=O)c1cc(C)cc(C)c1,0.521
15,CCc1cccc2c(C#N)cn(CC(=O)Nc3ccc(OC)cc3)c12,0.457
16,Cc1ccc(NC(=O)c2ccc(NCCCN3CC(C)CC(C)C3)c([N+](=O)[O-])c2)cc1F (stereo not drawn),1.22
17,CCC(C)(C)n1nnnc1C(c1cc2ccc(C)cc2[nH]c1=O)N1CCN(c2ccccc2)CC1 (stereo not drawn),0.735
18,COc1ccc(OC)c(-c2ccc(C(=O)N3CCN(CC=Cc4ccccc4)CC3)c(N(C)C)n2)c1,0.577
19,O=C(ON(C(=O)c1ccc(F)cc1)C1C2CC3CC(C2)CC1C3)c1ccc(F)cc1 (stereo not drawn),0.855
20,COC(=O)C1=C(C)NC2=C(C(=O)c3ccccc32)C1c1ccc(OCC#N)c(OC)c1 (stereo not drawn),0.821
21,CCCn1c(=N)c(C(=O)NC2CCCCC2)cc2c(=O)n3cccc(C)c3nc21,1.15
22,O=C(Nc1ccc(-n2cnnn2)cc1)C1CCN(Cc2ccc(OC(F)F)cc2)CC1,0.913

row,Structure (SMILES),viability index
1,Oc1ccccc1Nc1nc(NCc2ccccc2)c2ccccc2n1,0.859
2,COc1ccc(OC)c(C(C(=O)NC2CCCC2)N(C(=O)c2snc(C(N)=O)c2N)c2ccccc2OC)c1 (stereo not drawn),0.781
3,CC(C)(C)c1nn(-c2ccc(Cl)cc2)c2[nH]c(=O)c(CNCc3ccccc3)cc12,0.424
4,COC(=O)c1ccc(C2C3=C(CC(c4ccco4)CC3=O)Nc3ccccc3N2C(=O)c2ccccc2)cc1 (stereo not drawn),0.575
5,NC(=O)NN=C1c2cc(S(=O)(=O)NCc3ccco3)ccc2-c2ccc(S(=O)(=O)NCc3ccco3)cc21,0.76
6,COc1ccc(Br)cc1CNC(=O)CCCN1C(=O)COc2ccc(C)cc21,0.956
7,COc1ccc(C2CC(=O)C3=C(C2)NC(C)=C(C(=O)OC2CCCC2)C3c2ccc(Cl)cc2)cc1 (stereo not drawn),0.502
8,C=CCNC(=O)c1cc2c(=O)n3ccccc3nc2n(CCc2ccccc2)c1=N,0.686
9,Cc1ccc(CN2CCN(Cc3ccccc3)CC2)o1,0.788
10,COc1ccc(N2C(=O)c3cccnc3C2=O)cc1,0.743
11,Cn1c(SCc2cccc([N+](=O)[O-])c2)nc2c(c1=O)SCC2,0.818
12,CCOC(=O)C1(CC2CCCCO2)CCN(Cc2cccc(C)n2)CC1 (stereo not drawn),0.442
13,CCC(C(=O)NCc1ccc(OC)c(OC)c1)n1nc(C)c2c(C)n(-c3ccc(C)cc3)nc2c1=O (stereo not drawn),0.639
14,CCCC[n+]1c(C=C2C=Cc3ccccc3N2CC)sc2ccccc21,0.257
15,COc1ccc(/C=C(/C#N)C(=O)Nc2cccc3ccccc23)cc1,0.934
16,Brc1ccc(C=NNc2nc3ccccc3[nH]2)cc1,1.12
17,COCCNC(=O)c1ccc(OC2CCN(CC(c3ccccc3)c3ccccc3)CC2)c(OC)c1,0.512
18,CC1CCN(C2=C(NC3CCCC3)C(=O)c3ccccc3C2=O)CC1,0.394
19,CCOc1ccc(N2C(N)=NC(N)=NC2(C)C)cc1,0.992
20,CCOC(=O)c1c(NC(=O)CSc2nnc(CNC(=O)c3ccc(C)c(C)c3)n2C2CCCCC2)sc2c1CCC2,0.784
21,CCOc1cccc(Nc2c3c(nc4ncnn24)CCC3)c1,0.844
22,CCOC(=O)c1cnc2c(OC)cccc2c1Nc1ccc(C(C)=O)cc1,1.27

row,Structure (SMILES),viability index
1,C#CCNC(=O)c1ccc(OC2CCN(CC(c3ccccc3)c3ccccc3)CC2)c(OC)c1,0.536
2,O=C(O)c1cc([N+](=O)[O-])ccc1Oc1cncc(Cl)c1,1.21
3,CCOc1ccc(C=C2SC(=Nc3ccccc3)NC2=O)cc1OC,0.645
4,COC(=O)c1cn([C@H]2C[C@@H](C(=O)NCc3ccc(OC)cc3)N(Cc3ccsc3)C2)nn1,1
5,COc1ccc(Nc2ccccc2NC(=O)c2cccc(N(C)C)c2)cc1,0.791
6,Cc1cc(Nc2ccc(Cl)c(Cl)c2)n2ncnc2n1,0.71
7,COc1ccc(NC(=O)c2cnn(-c3ccccc3)c2NC(=O)c2ccco2)cc1,0.846
8,CCOC(=O)c1ccc(NC(=O)c2cc3ccccn3n2)cc1,0.917
9,Cn1nc(C(F)(F)F)c(-c2ccc(F)cc2)c1NC(=O)Nc1ccccc1,0.647
10,Cc1cc(C)c(S(=O)(=O)N(C)CCCNc2ccnc3cc(Cl)ccc23)c(C)c1,0.685
11,CCCN(CCC)CCCNc1ccc(C(=O)Nc2ccc(C)c(F)c2)cc1[N+](=O)[O-],0.988
12,CCCCCC1CCCc2c1[nH]c1cc(Cl)ccc1c2=O (stereo not drawn),0.54
13,O=C(Nc1ccc2c3c(cccc13)CC2)c1cccc2ccccc12,0.743
14,CN(C)CCNc1cc(-c2ccccc2)nc2ccccc12,0.909
15,Cc1ccc(S(=O)(=O)Nn2c(SCC(=O)NCCc3ccc(S(N)(=O)=O)cc3)nc3ccccc3c2=O)cc1,0.972
16,CC1=C(C(=O)OCC(C)C)C(c2ccc(OCc3ccccc3)cc2)C2=C(CC(c3ccccc3)CC2=O)N1 (stereo not drawn),0.811
17,CCOC(=O)c1cnc2ccccc2c1Nc1ccc(OC)c(OC)c1,0.93
18,Cc1cc(C)n(N=Cc2cccc(Cl)c2)c(=O)c1C#N,0.951
19,O=C1CSc2ccccc2N1,0.863
20,COc1ccc(CCN2C(=O)N(CCN(C)C)C(=O)C23CCN(Cc2ccc(O)cc2)CC3)cc1,1.12
21,O=C1c2ccccc2C2=Nc3ccccc3SC(c3ccccc3F)C12 (stereo not drawn),0.753
22,CC1CCCC(NC(=O)C2N(CCN3CCCCC3C)C(=O)C3C(C(=O)Nc4cccc(Cl)c4)C4C=CC32O4)C1C (stereo not drawn),1.02

row,Structure (SMILES),viability index
1,CN1CCN(c2ccc(Nc3ccnc4cc(Cl)ccc34)cc2Cl)CC1,0.719
2,CCc1cccc(NS(=O)(=O)c2ccc3[nH]c(=O)c(=O)[nH]c3c2)c1,0.763
3,CCOC(=O)c1cnc2ccc(OCC)cc2c1NCCCN(CC)CC,0.827
4,COc1ccc(-c2c[n+](CC(=O)c3ccc([N+](=O)[O-])cc3)c3n2CCC3)cc1,0.933
5,COc1ccc(C(C)=NNc2nnc(C)c(O)n2)cc1,0.842
6,COc1ccc(OC)c(CN2CCC3(CC2)CC3C(=O)NCCc2ccccc2OC)c1 (stereo not drawn),1.06
7,COc1ccc(NC(=O)CCCCCn2c(SCc3cc(=O)oc4cc(O)ccc34)nc3ccsc3c2=O)cc1,0.925
8,OC(Cn1cnc(-c2ccccc2)c1-c1ccccc1)Cn1c2ccc(Br)cc2c2cc(Br)ccc21 (stereo not drawn),0.494
9,CC(=O)NC(CO)C(O)c1ccc([N+](=O)[O-])cc1 (stereo not drawn),0.992
10,CCc1ccc(CSc2nc3cc(OC)c(OC)cc3c(=N)n2CCc2ccccc2)cc1,0.926
11,O=C(Oc1ccc(N2C(=O)c3ccc([N+](=O)[O-])cc3C2=O)cc1)c1ccco1,0.888
12,CCNC(=S)NC1CC2CCCC(C1)N2CCc1ccccc1 (stereo not drawn),0.866
13,Cc1cccc(Nc2nc(NCc3ccco3)c3ccccc3n2)c1,0.561
14,O=C1c2ccc(-c3nc(-c4ccccc4)[nH]c3-c3ccccc3)cc2-c2cc(-c3[nH]c(-c4ccccc4)nc3-c3ccccc3)ccc21,0.742
15,CC(=O)Nc1ccc(C2NC(=O)NC3=Nc4ccccc4SC(c4ccccc4)=C32)cc1 (stereo not drawn),0.853
16,Cc1cccc(N=C2NC(=O)C(=Cc3ccc(N(C)C)cc3)S2)c1,0.981
17,COc1ccc(C(NC(=O)COc2ccccc2)c2cc(Cl)c3cccnc3c2O)cc1 (stereo not drawn),0.873
18,O=C(Nc1nc(-c2ccccc2)cs1)c1ccccc1O,0.983
19,O=C(Nc1cc(Cl)cc(Cl)c1)Nc1cccc(C(F)(F)F)c1,1.06
20,Cc1ccc(C2=NC(C(F)(F)F)(C(F)(F)F)N=C3C=CC(Cl)=CN32)cc1,1.21
21,CCOC(=O)C1=NNC2C(=O)N(c3cccc(C)c3C)C(=O)C12 (stereo not drawn),0.909
22,Cc1oc2c(c1C(=O)NCC1CCCO1)C(=O)c1ccccc1C2=O (stereo not drawn),0.195
